{"source": "paper PMC4336329", "about": "(PLoS ONE, 2015)", "note": "About 2,200 (0.71%) of roughly 310,000 compounds showed an effect of 50% or more. Effects have a minus sign here. The list shows a part of the results.", "data": [{"target": "human ether-à-go-go-related gene (hERG) potassium channel (human, UniProt Q12809)", "sequence (Q12809 whole entry, looked up)": "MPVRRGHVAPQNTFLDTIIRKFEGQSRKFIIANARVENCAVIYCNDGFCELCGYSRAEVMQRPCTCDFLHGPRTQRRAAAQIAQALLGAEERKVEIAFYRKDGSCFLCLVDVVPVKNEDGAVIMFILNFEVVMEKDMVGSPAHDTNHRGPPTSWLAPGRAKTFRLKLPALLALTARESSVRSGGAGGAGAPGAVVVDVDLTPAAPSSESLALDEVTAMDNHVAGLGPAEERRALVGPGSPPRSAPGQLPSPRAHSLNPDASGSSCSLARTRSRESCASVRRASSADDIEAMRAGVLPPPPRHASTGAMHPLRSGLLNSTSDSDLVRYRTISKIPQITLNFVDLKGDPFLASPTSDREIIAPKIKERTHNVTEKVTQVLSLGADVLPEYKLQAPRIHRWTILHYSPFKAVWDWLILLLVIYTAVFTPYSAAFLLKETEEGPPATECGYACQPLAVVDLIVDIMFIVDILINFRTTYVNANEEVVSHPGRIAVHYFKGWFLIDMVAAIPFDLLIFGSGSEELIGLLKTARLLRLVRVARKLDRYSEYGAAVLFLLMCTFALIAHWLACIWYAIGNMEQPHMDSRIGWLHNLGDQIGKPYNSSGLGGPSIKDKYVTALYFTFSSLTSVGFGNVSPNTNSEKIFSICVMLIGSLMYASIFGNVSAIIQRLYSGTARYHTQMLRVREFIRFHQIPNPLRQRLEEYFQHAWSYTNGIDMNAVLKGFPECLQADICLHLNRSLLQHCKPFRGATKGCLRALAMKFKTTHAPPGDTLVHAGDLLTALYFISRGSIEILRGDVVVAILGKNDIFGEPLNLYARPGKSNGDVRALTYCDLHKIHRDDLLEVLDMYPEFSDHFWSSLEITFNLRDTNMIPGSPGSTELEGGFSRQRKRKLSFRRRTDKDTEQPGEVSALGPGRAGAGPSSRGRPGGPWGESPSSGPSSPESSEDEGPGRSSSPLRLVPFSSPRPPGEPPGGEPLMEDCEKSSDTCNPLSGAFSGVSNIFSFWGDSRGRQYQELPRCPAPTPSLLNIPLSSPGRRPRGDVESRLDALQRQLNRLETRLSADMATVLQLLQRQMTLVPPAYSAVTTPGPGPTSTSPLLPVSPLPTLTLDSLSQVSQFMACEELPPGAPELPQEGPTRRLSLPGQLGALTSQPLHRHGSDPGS", "assay": "primary screen, population patch clamp on CHO cells stably expressing hERG", "units": {"hERG current change (%, negative = inhibition) at 1uM": "%"}, "values": [{"compound": "Cc1cnc(C(=O)Oc2c(C)ccc(C)c2C)cn1", "hERG current change (%, negative = inhibition) at 1uM": 6.11}, {"compound": "COc1cc(/C=C/C(=O)OCC(=O)Nc2c(C)n(C)n(-c3ccccc3)c2=O)ccc1O", "hERG current change (%, negative = inhibition) at 1uM": 13.5}, {"compound": "Cc1nn(-c2ccc(F)cc2)c(C)c1NS(=O)(=O)c1ccc2ccccc2c1", "hERG current change (%, negative = inhibition) at 1uM": 19.2}, {"compound": "O=C(COC(=O)CC(c1ccccc1)c1ccccc1)Nc1ccc(F)c(F)c1", "hERG current change (%, negative = inhibition) at 1uM": 1.93}, {"compound": "CC(=O)Nc1ccc(S(=O)(=O)N2CCN=C2SCc2ccc(F)cc2)cc1", "hERG current change (%, negative = inhibition) at 1uM": 3.33}, {"compound": "CSC1=NCCN1S(=O)(=O)c1ccc2ccccc2c1", "hERG current change (%, negative = inhibition) at 1uM": -17.2}, {"compound": "O=C(CCSCCC(=O)Nc1c(F)c(F)c(F)c(F)c1F)Nc1c(F)c(F)c(F)c(F)c1F", "hERG current change (%, negative = inhibition) at 1uM": 5.63}, {"compound": "C/C(CCc1ccc2c(c1)OCO2)=N\\NC(=O)c1ccccc1", "hERG current change (%, negative = inhibition) at 1uM": 3.54}, {"compound": "CC1CN2c3ccc([N+](=O)[O-])cc3CC3(C(=O)N(C)C(=O)N(C)C3=O)C2C(C)O1", "note": "(stereo not shown)", "hERG current change (%, negative = inhibition) at 1uM": 14.9}, {"compound": "COc1ccc(C(=O)O/N=C(\\N)Cc2ccc([N+](=O)[O-])cc2)c(OC)c1", "hERG current change (%, negative = inhibition) at 1uM": -9.08}, {"compound": "Br.COc1ccc(/C=N/Nc2nc(C(=O)O)cs2)cc1", "hERG current change (%, negative = inhibition) at 1uM": 17.1}, {"compound": "C/C(=N\\NC(=O)C(N)=O)c1cccc(C(F)(F)F)c1", "hERG current change (%, negative = inhibition) at 1uM": 26.3}, {"compound": "COc1ccc(CN2CCN(CC=C(C)C)C(CCO)C2)cc1Cn1cncn1", "note": "(stereo not shown)", "hERG current change (%, negative = inhibition) at 1uM": 4.07}, {"compound": "COc1ccc(Cn2ccnc2SCC(=O)Nc2ccccc2OC)cc1", "hERG current change (%, negative = inhibition) at 1uM": 4.8}, {"compound": "Cc1ccc(OC(=S)Nc2ccc(O)cc2)cc1", "hERG current change (%, negative = inhibition) at 1uM": -5.64}, {"compound": "CCCCN1C=CC(=C2C(=O)c3ccccc3C2=O)C=C1", "hERG current change (%, negative = inhibition) at 1uM": 19.5}, {"compound": "CCOc1ccc2nc(N(Cc3ccccc3)C(=O)CCNC(C)=O)sc2c1", "hERG current change (%, negative = inhibition) at 1uM": -3.35}, {"compound": "O=C(CSc1nc(-c2ccco2)cc(C(F)(F)F)n1)NCCN1CCOCC1", "hERG current change (%, negative = inhibition) at 1uM": 6.25}, {"compound": "Nc1nonc1-n1nnc(C(=O)N/N=C/c2ccccc2Cl)c1CSc1ccccc1", "hERG current change (%, negative = inhibition) at 1uM": 13.5}, {"compound": "Cc1cc(C)c(COc2ccc(/C=N/n3c(C)n[nH]c3=S)cc2)c(C)c1", "hERG current change (%, negative = inhibition) at 1uM": 0.763}, {"compound": "O=C(O)c1ccc(OCCCCCCOC2CCCCO2)cc1", "note": "(stereo not shown)", "hERG current change (%, negative = inhibition) at 1uM": 12.1}, {"compound": "CC(C)N(C(=O)c1ccc(-c2ccccc2F)cc1)C(C)C", "hERG current change (%, negative = inhibition) at 1uM": 15.1}, {"compound": "Cc1cc2c(cc1C)N(CC(=O)N1CCCC1)C(=O)CC(c1ccccc1)=N2", "hERG current change (%, negative = inhibition) at 1uM": 1.81}, {"compound": "Cc1nn(-c2ccccc2)c2sc(-c3nnc(SCC(=O)O)o3)cc12", "hERG current change (%, negative = inhibition) at 1uM": 16}, {"compound": "O=C(c1ccccc1)N1CCN=C1SCc1ccc([N+](=O)[O-])cc1", "hERG current change (%, negative = inhibition) at 1uM": -20.5}, {"compound": "Clc1ccc(CN2CCC(c3nc4ccc(Cl)cc4[nH]3)CC2)cc1", "hERG current change (%, negative = inhibition) at 1uM": -78.7}, {"compound": "COc1cc(C(=O)N2CCC(C(=O)Nc3cccc(C(C)=O)c3)CC2)cc(OC)c1OC", "hERG current change (%, negative = inhibition) at 1uM": 0.0653}, {"compound": "OCCC1CN(Cc2cnc(N3CCOCC3)s2)CCN1C1CCCC1", "note": "(stereo not shown)", "hERG current change (%, negative = inhibition) at 1uM": 16.8}, {"compound": "O=C(O)C1=C[C@H](c2ccc(C(F)(F)F)cc2)C[C@H](OCCCCO)O1", "hERG current change (%, negative = inhibition) at 1uM": 15.4}, {"compound": "COc1ccc(NC(=O)C2CCCN(c3ncnc4onc(-c5ccc(F)cc5)c34)C2)cc1", "note": "(stereo not shown)", "hERG current change (%, negative = inhibition) at 1uM": 9.27}, {"compound": "O=c1[nH][nH]c(-c2ccccc2O)c1C(C[N+](=O)[O-])c1ccc(Br)cc1", "note": "(stereo not shown)", "hERG current change (%, negative = inhibition) at 1uM": 18.7}, {"compound": "CC1CN=C(N(C(=O)Nc2ccccc2)C(C)c2ccccc2)S1", "note": "(stereo not shown)", "hERG current change (%, negative = inhibition) at 1uM": 13.8}, {"compound": "COc1ccc(C(=O)COC(=O)CCNS(=O)(=O)c2ccccc2)cc1Br", "hERG current change (%, negative = inhibition) at 1uM": 17.1}, {"compound": "CCCc1ccc(OCC(=O)O)cc1", "hERG current change (%, negative = inhibition) at 1uM": 5.55}, {"compound": "O=C(OCCC1Oc2cccnc2NC1=O)c1ccc(Cl)cc1", "note": "(stereo not shown)", "hERG current change (%, negative = inhibition) at 1uM": 10.4}, {"compound": "O=c1[nH]c2cc([N+](=O)[O-])c([N+](=O)[O-])cc2[nH]c1=O", "hERG current change (%, negative = inhibition) at 1uM": 1.24}, {"compound": "CC(=O)c1ccc(S(=O)(=O)N2CCN(S(=O)(=O)c3ccccc3C(F)(F)F)CC2)cc1", "hERG current change (%, negative = inhibition) at 1uM": 14.5}, {"compound": "O=C(c1cccnc1)N1N=C2CCCCCC2C1(O)C(F)(F)F", "note": "(stereo not shown)", "hERG current change (%, negative = inhibition) at 1uM": 8.53}, {"compound": "CSc1ccccc1NC(=O)CN(C)C(=O)C1CCN(C(=O)Nc2ccccc2)CC1", "hERG current change (%, negative = inhibition) at 1uM": 8.26}, {"compound": "Cc1ccc(OCc2nnc(SCc3cc(=O)[nH]c4ccccc34)o2)cc1", "hERG current change (%, negative = inhibition) at 1uM": 8.27}, {"compound": "Cc1ccc(C(=O)N/C(=C\\c2ccccc2)C(=O)NCCN2CCOCC2)cc1", "hERG current change (%, negative = inhibition) at 1uM": -38.7}, {"compound": "O=C(Nc1nc2ccc(Oc3ccccc3)cc2s1)c1cc([N+](=O)[O-])ccc1N1CCOCC1", "hERG current change (%, negative = inhibition) at 1uM": 5.63}, {"compound": "Cl.O=C(c1ccco1)N1CCN(C(c2ccccc2Cl)c2nnnn2Cc2ccco2)CC1", "note": "(stereo not shown)", "hERG current change (%, negative = inhibition) at 1uM": -27}]}]}
